Over roughly 33,000 sequences, “E-score (-0.5 to 0.5)” has its median near -0.04; the highest 2% begin near 0.36. Some of the results follow.
Target: T1, Hmlalpha2 (UniProt P0CY09)
T1 sequence: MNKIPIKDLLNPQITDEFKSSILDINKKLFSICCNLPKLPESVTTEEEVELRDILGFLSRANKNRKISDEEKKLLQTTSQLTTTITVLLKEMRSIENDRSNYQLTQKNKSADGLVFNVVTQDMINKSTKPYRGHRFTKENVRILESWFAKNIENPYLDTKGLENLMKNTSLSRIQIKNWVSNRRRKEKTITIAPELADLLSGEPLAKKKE
Test: PBM E-score (8-mer binding enrichment) (E-score (-0.5 to 0.5)); higher = stronger / more preferred TF binding; most listed sequences are background and not binding sites
Details: protein concentration: 200 nM; construct: GST-full length
Method in brief: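 Masliner-normalised scans of fluorescent anti-GST signal were the basis for scoring. That signal came from GST-tagged yeast transcription factors applied at about 100-200 nM to double-stranded universal all-10-mer Agilent arrays on fresh or once-stripped slides. Each ungapped eight-base word, pooled with its reverse complement, received an E-score from the Universal PBM Analysis Suite.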

Sequence	PBM E-score
ATGTCTTC	0.169
CCAGGGAC	-0.211
ATCCCCAC	-0.203
CAGGTCCA	-0.122
CTTGCGCC	-0.0718
CACCACTG	-0.19
CCGACTAC	0.00778
ATCGACGA	-0.0988
ACGAAGCG	-0.0556
CAAAGTGG	-0.35
AGTACGTA	0.291
GGTAGACC	-0.213
GACCGACC	-0.101
GTGACCGA	-0.182
AGCGCCCT	-0.182
AAGAGGCC	-0.402
GTTCGTGA	-0.156
GACTTCGC	-0.102
CGCTGTTC	0.0777
CTGTTTGA	0.0416
AATGTAGG	0.0581
AGTCCCTG	-0.284
CCCTAGAC	-0.219
AGCTGTGG	-0.233
ACCGAACG	-0.0417

Sequence	PBM E-score
GCGCGAAA	0.189
GTAAAAAC	0.385
GCTCGGAA	-0.153
CCTAAACG	-0.0497
GCTCCCTA	-0.232
AGTTTTAA	0.169
AGGCTACG	-0.0627
ATGGATCA	-0.123
AAGCCTGG	-0.168
CCTGTGGC	-0.193
CAAATCCC	-0.318
CTGTCCGA	-0.0331
CATATCCA	-0.108
AACAGGCT	0.109
CACAAGAC	-0.102
AAGAGTAT	0.0109
AGCACAGC	0.0215
TTGGCCAA	-0.236
AGGCCGAC	-0.413
GCGCTAGA	-0.0843
TAACTCTA	-0.104
CAGAACAC	0.141
AAGGTTCA	-0.0691
TGGCTTAA	0.146
TCGCTAGA	-0.205

Sequence	PBM E-score
ATTGCCAG	-0.159
AATACCAC	-0.0268
AAATTTTG	-0.0314
AATTTCGG	-0.154
ACTGTCCT	-0.156
AAGTCAGC	0.0573
AGCACTGC	-0.17
GGTACCAC	-0.216
AGACTCGA	-0.211
ATTTGGCG	-0.0112
CTCGGCTA	-0.182
CTCTGGAC	-0.0396
GCATAAGA	-0.109
ATAGTACC	-0.13
CTGGTACC	-0.134
TTCGCCAA	-0.154
CATCGGCG	-0.266
ACAGTGAC	-0.021
ATGCGGAC	-0.145
CGTCAATA	-0.0292
GCTTCTCC	-0.326
ACTCTGCG	-0.0577
CCGCCACC	-0.208
ATAGCGCG	0.0323
ACACTCTG	0.11

Sequence	PBM E-score
TAGCCCAA	-0.0672
GTGCACAC	-0.153
CAACAAAC	0.215
CTAATCCA	-0.235
CAGAACCG	0.113
GAACTATC	-0.209
CGGGCTTA	-0.124
ACCTCATC	-0.0561
CGGACCCG	-0.24
GCTGCACC	-0.393
CGCATTAC	0.214
ATCTCATA	-0.0685
AGAGCTTA	-0.0481
CTACCATC	-0.205
GAGGCCGC	-0.174
AACTGTAA	0.227
CCCGGAAC	-0.156
CGTTCGGC	-0.217
CGTAACTA	0.149
AAAAGAGC	-0.0178
AGTATATC	0.0765
CGGTTTTC	-0.038
ATCGACAT	0.31
ATGTAGGA	0.236
GAAGGCGA	-0.325

Sequence	PBM E-score
ATCATACC	0.138
GGATCCGA	-0.303
GGCTACCC	-0.274
GACATGTC	0.327
GTTATGCA	0.00491
AAAAAACA	0.244
ACCCGGAC	-0.171
ATTATCTA	0.277
AAGAAACG	0.109
CCTGAGAA	0.043
TCAGTCGA	-0.0399
ATATACTA	0.1
AGTTGTTG	-0.00626
CCTGCCTA	-0.15
CAGAGCGG	-0.218
CCCGTGTA	0.451
CCACGGAC	-0.301
CGAGCCAA	0.0319
AGCGAGCA	-0.0888
GTCGCCTA	-0.103
AGGTATTC	0.139
ACGCGGGC	0.198
AATACGCA	0.385
CTCGCTCC	-0.103
AAATCAAC	0.104

Sequence	PBM E-score
ACACCAGG	-0.102
CGATAATC	-0.134
ACGTCACC	-0.0136
GTGGGACA	-0.0285
CAAGTCCC	-0.195
CACTGAAA	0.0809
GACCGTAC	-0.136
ATCCTATA	0.0747
ATGTCCAC	0.0727
AGTCGCTA	0.0556
CATAGCCA	-0.0704
CTAGGCCC	-0.281
AGCGGGTG	0.00691
ATATTATC	0.0773
ACCTTCAC	0.0215
GCAAGGGA	-0.164
GATTACAC	0.483
ATAGCACC	-0.115
CGCCATAG	-0.163
ATGTAAAG	0.473
AGGTCTTA	0.00867
CAGAGTCG	-0.251
CAGCATAG	0.0319
ACGCAATG	0.249
CGGCCATA	-0.208

Sequence	PBM E-score
CACGGTGA	0.155
CTCGGCGC	-0.0543
GAGACCTC	-0.154
ACACACGC	0.288
AACCGTGA	-0.0751
AACAGCAA	0.116
ACCTCGCA	0.0111
CGCCAAGC	-0.127
AGTACGCA	0.0995
AAGAGACG	-0.125
CAGACTAA	-0.0197
ACCAATAT	0.0365
ATGTACCG	0.112
AAGGAGTG	-0.0512
CGGCTCTA	-0.0712
CTCAGAAA	0.0713
ACTTGTTG	0.143
CTTACCCC	-0.307
ACTTCTGC	-0.00836
CATGACGC	0.228
ATTATGGG	-0.127
CAAGACCA	-0.0761
AAGGAGGC	-0.247
ATAGAATA	0.146
GTCTGCTA	0.00028

Sequence	PBM E-score
CCCCCTCG	-0.316
AGAGATAC	0.0207
AGAGCAAA	-0.138
CCAAGAGG	-0.239
AGGGTGTC	-0.163
CAGGAGAG	-0.144
AAGATATA	0.186
CCTGTGTA	0.43
CTGCAACA	0.0745
ATCTATCA	-0.0143
AATACTAT	0.0435
ACCCGTAA	0.0605
CGCGGGGA	0.00824
CCCTCGAC	-0.183
GTACGTAC	0.17
GTCATTCA	-0.0332
GCAAAACA	0.135
ATGACAAG	0.15
GAGCCTTA	-0.14
GACTTGGC	-0.347
CGTCGGCC	-0.146
ACTTATAG	-0.0672
AAGCGAGT	0.169
ATTAAAAG	0.00813
ATAAAGAC	0.0149

Sequence	PBM E-score
ATCCGCTC	-0.247
ATCGCCAT	-0.127
GTCGCGTA	0.414
AAACGCGA	0.214
TGAGAACA	0.168
GAAGGGGC	-0.259
CGAAGTAC	0.117
AGTGATAT	-0.12
CATCGGCA	-0.103
CATCTTGG	-0.183
GGATTACA	0.444
CGAGAATA	-0.0428
ACACACAC	0.326
AGACCAAT	0.0163
AGGGCGGG	-0.0726
GCAGTACA	0.192
TACTTGAA	0.257
CAACGAAG	0.0201
CTACCAAG	-0.0171
AGCGTACT	-0.0394
AAGGCCAG	-0.159
ATATGTTG	0.346
GTCGAGAA	0.154
AGGTGCAA	-0.136
GGAAATCA	0.0188

Sequence	PBM E-score
CCCCAAAG	-0.185
ATGGACAG	-0.0548
GTGAAGAA	0.181
ATATCTCC	-0.269
CAGTAGCC	-0.249
AAATCGCT	-0.0533
AAGATCGC	0.0662
CCGGGAAG	-0.179
CCAATTTC	-0.134
CGATACAG	-0.176
AGAGTATG	-0.0146
ACACGTCC	0.236
CCGTCCGA	-0.283
AGGTTAAC	0.222
GAACGAAA	-0.193
CCGTAGCA	-0.122
CATTGACG	0.0323
CCAGTGGG	-0.211
ACCTTTGC	-0.0389
ATAGAGTC	-0.0378
GGTACTTA	-0.0559
ATTGCGGC	-0.186
CTTTGCCA	-0.16
AGTTTATC	0.17
CTGGAGGC	-0.353

Sequence	PBM E-score
ATTATCTG	0.0498
ACCGCAAA	-0.00922
AATTCTTA	0.0503
CCCGGGAA	-0.178
CCATCGTA	0.2
ATTCGGGA	-0.169
GACAGACA	0.00195
AACATGTC	0.333
CGACAACG	0.11
AACTGCGG	-0.197
ATTAACGA	0.317
AATAGAGG	-0.15
CCGCCGAG	-0.232
AAGTTTGG	0.0347
ATCTTACG	0.15
GTGTGTCA	0.307
ATTTCGGA	-0.00238
GGGTTTGA	-0.0684
GGACACGA	0.0799
CATCAGAA	0.0899
GAAACCCC	-0.15
AGGGCTGC	-0.234
CAGTCCTA	-0.0557
GAGTTGAC	0.122
GAGCCAAC	0.0802

Sequence	PBM E-score
CAGCGATG	-0.139
ACCGGACT	-0.286
CGCTTCCG	-0.144
AACTAGGC	-0.0208
AGCAAGAA	-0.0357
AGTTCCCG	-0.212
GTCTGCAC	-0.113
AGCTTAAG	-0.0389
CTTTGCTC	-0.0327
ATGGCCTG	-0.129
AAAGAGCC	-0.253
TAGCTGAA	0.0114
TACACTAA	0.22
ACCGCCCC	-0.149
ACATCACG	0.208
ATGAGATG	-0.0219
ACGGTCCA	-0.184
CCCCGCTC	-0.429
CGATCAAC	0.083
GCTATATA	0.0986
CCGCCAGC	-0.325
GGAAGAGA	-0.182
GAACGTCA	-0.0932
CGGTATTA	-0.025
ACAGATGG	-0.115

Sequence	PBM E-score
ATGGTCGA	-0.0159
AGGATGAC	-0.108
ACACGTGT	0.432
GGAGACTA	-0.152
ATTTCATG	0.05
GATATGGC	-0.467
AGACAGAA	-0.13
CTGTTGGA	-0.0729
CAGAAGGC	-0.288
CGAAATGA	-0.0152
CCGGGAGG	-0.273
ATTGAGTA	0.3
ATATCGCA	-0.168
AAGGACCA	-0.191
AGCGGGAT	-0.231
CTCCCTAC	-0.0396
GGGCGCAC	-0.242
GAACCGAC	-0.0907
CGGATAAC	0.19
CAGTATCC	-0.0503
AATATTAC	0.381
ACTCTGGC	-0.373
ATAAAATG	0.116
CGTGGTCA	0.00964
AGCGTCAA	0.077

Sequence	PBM E-score
GCGCGTTA	0.372
AGAGTCAT	-0.112
ATTGACGC	0.122
ACTTCGAA	0.055
TAAGGGGA	0.00312
ACCCCCAC	-0.262
ATAACAAT	0.241
ATCATCGG	-0.188
CCACAGAA	-0.00055
GAAAACGC	0.163
ATTGGGTA	-0.103
AACACGAT	0.439
AATCGCAC	-0.0358
ATTTATTC	0.0902
GGTACATA	0.141
GATCGATA	-0.0666
ACTAGAAC	0.0152
CTCATAGC	-0.224
ACTTGCCA	-0.0087
